Results: the supplement of paper PMC3334620
The full ranking holds about 33,000 sequences; the median of “E-score (-0.5 to 0.5)” is about -0.012, and the highest 2% start at about 0.27. This is one part of the list.

molecular target: T1, Vhr1 (UniProt P40522); test: PBM E-score (8-mer binding enrichment) (E-score (-0.5 to 0.5)); higher = stronger / more preferred TF binding; most listed sequences are background and not binding sites; settings: protein concentration: 200 nM; construct: GST-full length
T1 sequence: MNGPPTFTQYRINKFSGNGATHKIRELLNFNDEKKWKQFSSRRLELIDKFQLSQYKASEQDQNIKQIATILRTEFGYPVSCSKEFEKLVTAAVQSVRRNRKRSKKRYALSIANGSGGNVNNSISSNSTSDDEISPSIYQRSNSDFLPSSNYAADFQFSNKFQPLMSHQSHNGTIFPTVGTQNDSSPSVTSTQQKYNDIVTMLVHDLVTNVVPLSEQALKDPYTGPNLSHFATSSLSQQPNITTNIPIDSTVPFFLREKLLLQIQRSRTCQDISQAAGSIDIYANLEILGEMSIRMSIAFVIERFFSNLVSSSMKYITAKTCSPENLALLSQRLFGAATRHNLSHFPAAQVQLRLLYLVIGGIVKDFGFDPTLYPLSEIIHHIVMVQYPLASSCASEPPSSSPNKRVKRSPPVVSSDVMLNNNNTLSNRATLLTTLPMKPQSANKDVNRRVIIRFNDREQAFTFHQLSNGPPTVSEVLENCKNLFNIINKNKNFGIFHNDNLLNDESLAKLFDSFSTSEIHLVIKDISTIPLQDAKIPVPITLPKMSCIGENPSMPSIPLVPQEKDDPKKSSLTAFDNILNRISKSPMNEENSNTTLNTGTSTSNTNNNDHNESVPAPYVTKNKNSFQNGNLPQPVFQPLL
Procedure, shortened: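 Yeast transcription factors carrying a GST tag, as full-length proteins or DNA-binding domains, were produced by PURExpress in vitro transcription/translation. About 100-200 nM protein was applied to universal all-10-mer Agilent arrays, double-stranded by primer extension on fresh or once-stripped slides. Bound protein was detected with fluorescent anti-GST, and scans were normalised with masliner. The Universal PBM Analysis Suite gave each ungapped eight-base word, pooled with its reverse complement, an E-score, a modified Wilcoxon-Mann-Whitney statistic.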

Row | Sequence | PBM E-score
1 | GATCCTAA | -0.0149
2 | CCAGAGGG | -0.24
3 | CTCAACAA | 0.14
4 | ATTCGAGG | -0.246
5 | AACCATGG | 0.135
6 | AGCCACGG | -0.0818
7 | AGATCGTA | -0.2
8 | ATGGTAAT | -0.0166
9 | CGTACCAG | 0.00834
10 | AGCCGTCA | -0.0405
11 | TTGGACAA | -0.12
12 | ATGTACAT | 0.128
13 | GCGCTTGA | -0.0355
14 | ACTGAAGG | -0.109
15 | AAACCTGA | 0.133
16 | ACGCACGC | 0.164
17 | CGTAGCCA | -0.0392
18 | CAGTGCAG | -0.0455
19 | CTAGGTGA | 0.0418
20 | AGACCCAC | 0.0873
21 | ATTTTAGA | -0.283
22 | GGTCCAAA | -0.232
23 | CAGACTTC | -0.208
24 | GCAGACAA | -0.00778
25 | AGCACGCC | -0.0683

Row | Sequence | PBM E-score
26 | AGGAGGTA | -0.0839
27 | AGAGAGAT | -0.101
28 | CCGCTTCA | 0.0058
29 | ATGGGTTA | 0.134
30 | GGCCCGAA | -0.0251
31 | GATCGGGC | -0.0757
32 | ACTTTTAA | -0.185
33 | CCACGAGC | 0.0593
34 | AGTTTCCC | -0.0976
35 | CGCGAAGA | 0.125
36 | AGATATGG | 0.158
37 | AAAGCCAA | -0.218
38 | CCTGTAAA | -0.251
39 | CCCTGAAA | -0.105
40 | AGGAACGA | -0.0754
41 | CCGACTGC | 0.126
42 | ACTCAGCT | 0.161
43 | ATCTGCAA | -0.13
44 | ACTCTCGC | 0.0365
45 | ACTGCGGA | 0.216
46 | ACCGCGCT | 0.0474
47 | AGAGACGC | -0.0087
48 | CGGTTGAA | 0.0331
49 | GTACAGGA | 0.0852
50 | ACTGTAAT | 0.142

Row | Sequence | PBM E-score
51 | ACGCCGTG | -0.023
52 | ATTCTCAC | 0.0456
53 | CTAGAGCA | -0.0073
54 | ATCTACTC | 0.0265
55 | GCTATGCA | -0.157
56 | ATCGGAGG | -0.133
57 | ACATGCGG | 0.0698
58 | AGTGGAGG | -0.00198
59 | TAGAATGA | 0.111
60 | ACCAGTCC | -0.0311
61 | ACTTTTTG | -0.0849
62 | GTACTACA | 0.164
63 | ATCCCGAG | 0.152
64 | ATTAGGCC | -0.047
65 | GAGGAATA | 0.00618
66 | CATGTTAA | 0.0934
67 | GCCGCGAC | 0.157
68 | AATCATCG | 0.334
69 | GGGCGACA | -0.00179
70 | CGGTCCAC | -0.21
71 | AAGAGCCG | -0.177
72 | GGGCACGA | -0.069
73 | GCCCCGGC | 0.0561
74 | AGCTACTA | -0.16
75 | GACTTATC | 0.0234

Row | Sequence | PBM E-score
76 | CACTTGAC | -0.13
77 | ATGGGGTC | 0.151
78 | TGAGGTAA | -0.116
79 | CGTAAACC | -0.174
80 | CGTCAAGA | -0.159
81 | TAGACCTA | -0.114
82 | CTTCTTTC | -0.263
83 | GCGCGAGA | -0.0412
84 | GCTTAAGC | -0.176
85 | CTCGGATA | 0.129
86 | GATACACC | 0.197
87 | AGGCCGGA | -0.111
88 | ACGAACGT | -0.00894
89 | CATAGACG | 0.0555
90 | GAAGTCTC | -0.253
91 | CGGAAACA | -0.174
92 | CGAGGGCC | 0.0875
93 | AAAGGAGG | -0.319
94 | CAATAATC | 0.101
95 | ATGATCAT | 0.253
96 | CCCATTTA | -0.115
97 | CACAAGCC | 0.0572
98 | CGACGATC | 0.058
99 | AACAGTGT | 0.0657
100 | CGCGACAA | 0.113

Row | Sequence | PBM E-score
101 | AGCCACAT | 0.22
102 | TAATATTA | 0.185
103 | CCTCTCGC | -0.154
104 | ATCGCAAT | 0.157
105 | CCACATAA | 0.108
106 | CGGCGCAA | 0.193
107 | ACGTCACT | 0.0346
108 | CTCACTTC | -0.174
109 | GATTTGGC | 0.051
110 | ATGCCCGA | -0.0291
111 | AGCATAGA | -0.148
112 | AAATCTCA | -0.0456
113 | TGACCGCA | 0.0423
114 | CAGAATAC | 0.00767
115 | CTCGAAGA | -0.00973
116 | ATCTAGAC | 0.0811
117 | GTCTGAGA | -0.122
118 | GACTTCCA | 0.0249
119 | CATCTCAA | -0.109
120 | AGCAAATC | 0.109
121 | GGAGAGGA | -0.166
122 | AGGGTCAC | -0.0656
123 | CCAATCCG | 0.122
124 | GAGGGTTA | -0.0982
125 | TAAATGTA | -0.0311

Row | Sequence | PBM E-score
126 | CCCCGCAC | 0.0391
127 | AATGTAAC | -0.0159
128 | CAGATACG | 0.0421
129 | AAACGCCT | -0.21
130 | AGATATGA | 0.161
131 | CCACGTCA | -0.165
132 | GATCGTGA | -0.068
133 | AGATGTTA | -0.11
134 | TGAATTCA | 0.239
135 | AAAAAGTT | -0.131
136 | GGACATCA | -0.0918
137 | CGAGTGAA | -0.0318
138 | GAAATGTA | -0.0556
139 | CGTCTGCA | -0.0976
140 | CGCTCAGC | -0.0369
141 | GAGGGTCC | -0.139
142 | AACTCATG | 0.254
143 | AATTGCAG | -0.113
144 | ACGGCACG | -0.0298
145 | CGTATGTA | 0.091
146 | TACTCACA | 0.285
147 | CGTCGTAG | -0.00749
148 | CGAGCGAA | -0.0708
149 | TTGCCCAA | -0.237
150 | GTCGAGAC | 0.111

Row | Sequence | PBM E-score
151 | CCTTGACC | -0.111
152 | GGCGAGAA | -0.0462
153 | AGTCCGTG | -0.0538
154 | CTGAACTA | -0.154
155 | CCTACCTA | -0.0935
156 | AAAGCCGA | -0.118
157 | CAGAGCCC | -0.158
158 | CCGTGGGA | -0.144
159 | CATGATCC | 0.213
160 | GCGCCGAA | 0.12
161 | ACCCAGCC | -0.00027
162 | GGCGGTCA | -0.156
163 | TAGTTAAA | 0.0419
164 | CATTCTCG | -0.0764
165 | CCATGGGC | 0.221
166 | GCCGACCC | -0.199
167 | ACTGTTGC | 0.0704
168 | GAGTCAAA | 0.312
169 | AGCTAAGA | -0.0284
170 | ACGTCATC | -0.199
171 | CGCCCATA | 0.124
172 | TAGTCAGA | 0.258
